# Measured values published in patent US12551573B2, “Compositions and methods for the targeting of PCSK9” (Scribe Therapeutics Inc., priority 2022, dated 2026).
# Like-named read-outs stand apart in the source and are kept apart here.
# B1: DOMAIN_25405 (protein, listed as Desmodus rotundus)
# chain: SVTFRDVIVDFTQEEWQQLKPAQKDLYRDVMMEVYWNLVSLDVETRPDAKESDPQEDDWEDRPSVVVIAEGPTRNGARSYT
# B2: DOMAIN_16378 (protein, listed as Callithrix jacchus)
# chain: PQKSVTFEDVAVYFTQAEWDGLSPAQRTLYRDVMLENYGNVASLGFPLLKPAVISQLEGGGELGGPSPLAAGTGLHVLRTV
# B3: DOMAIN_16009 (protein, listed as Zalophus californianus)
# chain: AYGSLSFGEVAISFSQEEWECLDPAQRALYRDVMLETYSNLVSLAGSSISKPDVITLLEQEKEPWVVVRRETSRWYPDLES
# B4: DOMAIN_16340 (protein)
# chain: PQKLVTFEDVAVYFTQTEWDGLSTAQRALYRDVMLENYGNVASLGFPLLKPAVISQLEGGGELEGPSSLASGAGTGPQGLW
# modifications: Ovis aries
# B5: DOMAIN_15577 (protein, listed as Callithrix jacchus)
# chain: FQELVTFRDVAIDFSGQEWEYLDPHQRDLYRDVMLENYRNLVSLGHSISKPVLVDLLEQGKEPWMILREETQFPGKEDRGH
# B6: DOMAIN_16023 (protein, listed as Rhinopithecus bieti)
# chain: AHALVTFRDVAIDFSQKEWECLDTTQRKLYRDVMLENYSNLVSLGYSGSKPDVITLLEQGKEPCVAVRDVTGTQYPGLLSR
# B7: DOMAIN_16372 (protein, listed as Odocoileus virginianus)
# chain: SRSPLTFGDVAVEFSGEEWARLDSAQRSLHRSVMLENYRNLASLGLCMSKPEMISSLEQRKEPWAVKRKSTRGRCPDSQTA
# B8: DOMAIN_15823 (protein)
# chain: TSQSPLTFGDVAVEFSGEEWAWLDSAQRSLHRSVMLENYRNLASLGKVSKPEMISSLEQRKEPWAVTRKTTGGECADSQTL
# modifications: Ovis aries
# B9: DOMAIN_15940 (protein, listed as Enhydra lutris)
# chain: FEELVTFEDVAVYFSENEWTSLAPTQRVLYRDVMLENYGAVASLAAFPFPKPALISQLERGEAPWCKAPQGALDGEGPRGI
# B10: DOMAIN_16266 (protein, listed as Otolemur garnettii)
# chain: QELLTFKDVSVEFSMDEWACLDPAQQTLYQDVMLENYRHLVFLGLTLSKPDLITCLEQSKEPWKVKSHQTVVKHPAVSDPP
# B11: DOMAIN_16188 (protein, listed as Otolemur garnettii)
# chain: LQESVTFRDVAVLFSQDEWLHLDSAQRTLYREVMLENYNNLASLGIPFSMPKVICQLQQGEDPCTVEGEVPSDSCIDAKGQ
# B12: DOMAIN_15636 (protein)
# chain: SLGSVTFTDVAIDFSQDEWEWLNLAQRSLYKKVMLENYRNLVSVGLCISKPVVISLLEQEKDPWVIKGGMNRGLCPDLECV
# modifications: Pan troglodytes
# B13: DOMAIN_16323 (protein, listed as Trichechus manatus)
# chain: PPESVTFEDVAVYFTQKEWASLMPAQKALYRDVMLENYEAVAFLAPATSKPALISQLEQGVEPSFSQAQGDLSMRDRGAGL
# B14: DOMAIN_25289 (protein, listed as Ursus maritimus)
# chain: LQRLLTFGDVAIEFSQEEWRCLSHTQRELYRDVMLENYRHLLFLGLIVSKPDLVSLLEQRKEPWDVKRKKTVVFDPGRWE
# B15: DOMAIN_16184 (protein)
# chain: QPQGTMTFKDVEVTFSQDEWGLLDASQRNLYRDVMLENYGNMASVVGPFTKPALISWLEAREPWGLNVQGVQLKGNPGAAP
# modifications: Ovis aries
# B16: DOMAIN_15687 (protein)
# chain: SQGHVTFEDIAVYFSQEEWGLLDEAQRCLYHDVMLENFSLMTSVAGLSQNNHKDSCLQWKVPVSMNNVAQCSPDEVHYTPM
# modifications: Cebus imitator
# B17: DOMAIN_16274 (protein, listed as Otolemur garnettii)
# chain: FQGLMTFEDVTVEFTQWEWGQLDPAQKDLYREVMLENFRNLASLGLPLSKPYVICQLEEGQEPCMLEKEISVGTQSVGEAT
# B18: DOMAIN_24458 (protein, listed as Lynx pardinus)
# chain: FQGSLSFEDVTVGFSQEEWQHLDPAQRTLYRDVMLENYSHLVAVGCCVPKPDVIFRLEQGQQPWLVEEESLDQIWPEVCRV
# B19: DOMAIN_15586 (protein, listed as Callorhinus ursinus)
# chain: IQEPVTFKDVAVDFTQEEWGRLDPVQRTLYRDVMLETYRHLLSVGNQIAKPEVISLLEQGEEPWSVEQAYPQSTCPAVDTE
# B20: DOMAIN_15834 (protein, listed as Otolemur garnettii)
# chain: SQGLVTFGDVAVDFSQEEWAWLSTTQRTLYRKVTLENYRNLASLGLCVSKPAVISLLEQGKEPWIVKRKMTRGGCPDLNAV
# B21: DOMAIN_15931 (protein)
# chain: HQEVVTFEDVAVYFTQTEWAGLSPAQRALYRSVMLEIYGNLTSLGYPVPKPELVSLLERGDLPVGLETQDNPPAQGTRDIY
# modifications: Ovis aries
# B22: DOMAIN_15603 (protein)
# chain: EPGAVSFGDVAVYFSREEWGCLRPAQRALYRDVMRETYSHLGALGVGGSKPALISWMEEEAELWVPAAQDPEVAKCPTEAD
# modifications: Cebus imitator
# B23: DOMAIN_15605 (protein)
# chain: ESVAFEDVAVYFTQNQWGSLDPAQRALYREVMLENYANVASLVAFPFPKPALISHLEKGEAPWGPDPWDAEIPSGISQGGE
# modifications: Cebus imitator
# B24: DOMAIN_16084 (protein, listed as Enhydra lutris)
# chain: SQVSVTFEDVAVLFTRDEWRKLGPSQRNVYQEVMLENYSNLVSLGLLFSKPRVISLLQEGEDPWKVEKESPGGPSLGWNSS
# B25: DOMAIN_15759 (protein)
# chain: QAEVTFEDVAVFLSQEEWGLLGPAQKGLYREVMLETYRNLVSLGAGLAGPKPEVIVHLERGDELWVLDMRGAEQPSVDGSA
# modifications: Ovis aries
# B26: DOMAIN_24663 (protein, listed as Myotis brandtii)
# chain: SLALVTFKDVLVNFTREEWKLLDAAQQVMYRDVMLENYRNLVSLGHRLPKPDVILQLEKGEEPWLVERGTHQDAHPDWDTA
# B27: DOMAIN_15699 (protein, listed as Bos taurus)
# chain: SQGRLTFQDVAIDFTQEEWECLDLGQRELYRDVMLENYGNLASLGLVISKPDLVTFLEQMKDPWDTRRMETPAVHPAVSSH
# B28: DOMAIN_15634 (protein)
# chain: QAEVTFEDVAVLLSREEWGRLGPVQKGLYRDVMLETYRNLVSLGAGPAGPKPEVITQLERGDEPWVPDVQGRERPNIDGSA
# modifications: Delphinapterus leucas
# B29: DOMAIN_16011 (protein)
# chain: PQVLVSFEEVAVLLSQEEWGHLGPAQKRLYRDVMLETYGNLVSLGLQGSKPDVISKLEQGEEPWAPHSPRIEGSWIWRRRR
# modifications: Delphinapterus leucas
# B30: DOMAIN_25379 (protein, listed as Sapajus apella)
# chain: ALRSVMFSDISIDFSPEEWDCLDLEQKDLYRDVMLENYSNLVSLGCFISKPDVISLLEQGKEPWKVVRKRRGQCPDLQTKY
# B31: DOMAIN_15753 (protein)
# chain: PRESVTFEDVAVNFSHEEWQCLTHSQRHLYKDVMLENYGNMVSLGFSFSKPPLISCLEQGAESYVQDQQDWEFLSCSYPVS
# modifications: Ovis aries
# B32: DOMAIN_16017 (protein)
# chain: PLTFEDVALYFSEEEWLIMDPNQRTLYLDVMQELYENVTSLGLKLKNDTGNDPPVSLPTLEIQPSGCEVVRKATMKDAETT
# modifications: Ovis aries
# B33: DOMAIN_15814 (protein, listed as Macaca mulatta)
# chain: SHELLTFKDISVDFTQEEWGQLAPAYQNLYREVMLENYSNLVSVAGYQLSKPSVISQLEKGEEPWMAEKEGPGDPSSDLKS
# B34: DOMAIN_15693 (protein, listed as Macaca mulatta)
# chain: PQGLVTFGDVAVDFSQEEWEWLNPNQRTLYRKVMLENYKNLASLGLCVSKPDVISSLEQGKEPWTVKRKMTRAWCPDLKIV
# B35: DOMAIN_16063 (protein, listed as Macaca mulatta)
# chain: ACESITFGDVAIDFSHQEWEYLNLVQKTLYQEVMMENYDNLVSLGHSISKPDLITLLEQGKEPWMIVGEETRGECTDLDSR
# B36: DOMAIN_16238 (protein, listed as Pongo sp.)
# chain: FQEPVTFEDVAVYFTQNEWASLHPTQRALYRGVMLENYANVTSLSAFPFPKPDLIFQLEQGEAAWGPDPWTLDGGEALRGM
# B37: DOMAIN_16147 (protein, listed as Pongo sp.)
# chain: ARGKSKSKAPVTFGDLAIYFSQEEWEWLSPIQKDLYEDVMLENYRNLVSLGLSFRRPNVITLLEKGKAPWMVEPVRRRRAP
# Tested on: HBEGF locus
# Type: cell-based, human
# Settings: high-throughput screen of dXR repression of the HBEGF gene
# [1] = change in abundance of each domain in the library before and after diphtheria toxin selection
# [2] = abundance of each domain in the library before and after diphtheria toxin selection, HEK293T cells
Molecule,Log2 (fold change) [1],Log2 (fold change) [2]
B1,3.8846,
B2,,2.9868
B3,,3.2738
B4,,2.778
B5,,2.4456
B6,,2.2831
B7,,4.2664
B8,,2.8458
B9,,2.8684
B10,,3.075
B11,,2.5145
B12,,2.2086
B13,,4.0053
B14,3.4113,
B15,,3.7743
B16,,2.5362
B17,,2.7655
B18,3.4012,
B19,,2.6157

Molecule,Log2 (fold change) [1],Log2 (fold change) [2]
B20,,3.7629
B21,,3.0861
B22,,3.5111
B23,,3.8196
B24,,3.0131
B25,,3.1884
B26,2.9806,
B27,,3.5255
B28,,3.3574
B29,,4.3363
B30,3.5892,
B31,,3.1699
B32,,2.6715
B33,,3.9503
B34,,3.8571
B35,,2.1603
B36,,3.8734
B37,,2.5699
